To fix the notation:
T1: TRAF2, Q12933
T1 chain: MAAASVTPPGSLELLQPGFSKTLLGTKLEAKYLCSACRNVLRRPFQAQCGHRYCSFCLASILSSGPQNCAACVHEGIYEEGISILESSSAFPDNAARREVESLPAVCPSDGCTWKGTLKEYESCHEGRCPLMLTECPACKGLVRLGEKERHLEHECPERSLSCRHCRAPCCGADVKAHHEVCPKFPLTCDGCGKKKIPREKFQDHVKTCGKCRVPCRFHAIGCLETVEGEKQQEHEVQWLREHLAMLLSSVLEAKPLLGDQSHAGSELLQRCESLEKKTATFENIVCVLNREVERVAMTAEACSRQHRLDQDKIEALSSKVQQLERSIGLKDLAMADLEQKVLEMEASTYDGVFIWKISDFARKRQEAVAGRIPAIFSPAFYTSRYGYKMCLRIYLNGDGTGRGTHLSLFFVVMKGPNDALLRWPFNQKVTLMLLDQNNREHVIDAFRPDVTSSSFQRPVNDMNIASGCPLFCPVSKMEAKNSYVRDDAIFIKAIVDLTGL

B1: traf2_out_17_178_1663 (protein)
chain: TKEEKRKEISELTDKLIDLAEEAADQFLALAKKEGDLSEEELAQIEQARRRGSANDVLALMKEWIPKLKNSEEAGKLLEEFEKKYRELSKKIAEAYKEYE
B2: traf2_out_17_178_1698 (protein)
chain: SKEEIRAKISELTDELIDLTDEYGTRLLAAARAEGVLTPEQLARLEAARASGSNRTFLATAEELLPASAASEELRALLEEFRAERRRLEKKIAEAYEKYE
B3: traf2_out_18_167_1840 (protein)
chain: EEEIREKREELMDRLVDLSEVKREARRALHALETDPAAVPAELEALEEEAKKVPELQPLVDAARAALEAGDREGLRAELEKLIEKAQKLMNETMKELEAL
B4: traf2_out_13_95_1063 (protein)
chain: SRETARKINELADKAEEEVLARLDAAKAALADDPAAVAALDEARRAAETRGISAAIHVLRQAKAANPALAAQWDALIAELEAIRRKLGEEVAKILKEEEE
B5: traf2_out_1_27_989 (protein)
chain: SDEEITERIREASRRIAEADLETALEIARELLRELYEEGLGDARMAAVTLITMMKTEEDAEALIEAAEETFRELGVPEEEIERLRRQMRTAYELLKEALA
B6: traf2_out_11_169_855 (protein)
chain: AEAERNRKINDFALELNDEAKEKLKKHALELAKKEGLDVEEVKKIFEKNKNKSLSALAAALIEYFKKKGKEDAAKEIEEKYEELKDEINKKMSAFLKELE
B7: traf2_out_20_3_2249 (protein)
chain: EELRKKAEEELEEIEKLLKRARPLLPPEDAAEAEELLEKAREAFKTDYTDALVYLSELRRLALERAQRARAAGDAETAALLEELAEAAQRALQYLYLIIE
B8: traf2_out_6_156_2403 (protein)
chain: TIEKIFEETLKKIRELVKKLAAASEEKKISYISKIAGTFYRGLQKLREAGASVEELKEFIERVLKELEKLLDEEGLDQSTKDLIISSITAVGEVALREAE
B9: traf2_out_13_95_1130 (protein)
chain: SRETAEKIMEIADEMLDKVLEILKELLKKFEKAGVGVEEIKEAIYLAEHQSINEAIKLLEELAKKYPEFKEELNKAIEEIKKLRREAGKKVAEILKEEKE
B10: traf2_out_20_3_2109 (protein)
chain: SELEAELKKELEAALKLLEEAAKLADPETAKVLRELAKRLKASESLSPTDRLVVVSEIRREVLRLQQEAEAAGNAELAAVLAAAADELNRAMNLLMKIIE
B11: traf2_out_3_89_2305 (protein)
chain: SMEREAKIEEMRKRMEAYIRGFEKSARFVAKQMIKEGYSLETIEGVLTAARNAIVDTLAEEAREAGLSEEDIKELTEEAKKELDKIVKEVVEEAKKKREE
B12: traf2_out_17_178_1727 (protein)
chain: SKEEILKEISEKADERLDVNREAVDRLRAIAEAEGVLTPELAARLDAVARNSNRYALEEVFEEVIARTSRAEEVEALLKETTEKLKELDKEISELVEKLE
B13: traf2_out_17_162_1604 (protein)
chain: SELEEKKKELLELLKELKKKLEELEKKLENIEKLSKEELTDLLVEASEARRKAREALEEIKKLKDELPEEEYEKLSTEFEELAEKFQRIANKLYEELEKK
B14: traf2_out_20_3_2253 (protein)
chain: EELRKKAEEALREVRALLEQAAPLLPAEDAAEARRLLEEAEEAFKTDYTDALVHVSALRRLALERAQRARAAGDAATAALLEQLAEAAQRLAHYLYLIIE
B15: traf2_out_13_26_1030 (protein)
chain: GMSPEELEEEEEKRMERLIEAANELADLRDKAVEAAKKDPEEARKLAEELRERLLEIAKDPEARSMALVQARRARLDFEALGREEEAALFEETIKEIEAL
B16: traf2_out_1_156_896 (protein)
chain: MSPEEQQAAIHARLKDPEVRAAFVDAALTRRELRELARELREAGGDPEVIERLEEAARRIHEAMNALLSSEPEDVEAKLAELKELIREGRELIREAEREL
B17: traf2_out_6_156_2440 (protein)
chain: TAEAIRAEAEKAIKAEIKALAASSEEKHIIHINRIAGTVYRALRRLRAAGASLEELRAFAEELRAVAKEEAKKNGLDESTQNLLLSSLNAVFDVALREAA
B18: traf2_out_14_154_1267 (protein)
chain: DELFDELEYYSGMSRLYESVVDAMATADVAETLALLDAATALLVARVPEKAAEIEAEAARIRAALNGSPEERAALREELEKKSEEYSKKAREYYKKIEEK
B19: traf2_out_12_187_965 (protein)
chain: SVEEELLRAAEEAVRRAKRALEEAAPERPEFKRLLEKLEELEELYKEDPSIASDLLVAASAILRAVRLFEAGAPEEEIDAAIAEAERILEEALERARKRK
B20: traf2_out_19_138_1959 (protein)
chain: SALQEVEDALADVGNAIRETIAAIQELEEKAKTKSPEEQAKVAAFSAKVLARLEAIREKASAAYNKVLKDPSQAPAAIKELKALLKEVEALLKEVKKELA
B21: traf2_out_20_3_2154 (protein)
chain: SELEKEADAARDKAIALLREAAALADPATAAELAALRDRVEASKSLSYSDRLVVLSEVRRQVLALAEAARAAGDAELAAVLEKAADALNKAMNLTYKIIE
B22: traf2_out_11_155_673 (protein)
chain: KKKQELNNKLVDELTEVSDKLKEEVKAILKAAAAAHPAHAAALAAVIASSKTLSGTSFARVAAQTLEALGLADAAAEVKKLLEKAQKEMNKIYKEYEKKL
B23: traf2_out_18_117_1808 (protein)
chain: SELERALEEFRRAVEEFERVRRRAERVAGRLLEKHPYNLPEEASDALVEFGELKRRAEELVLEAERNRDDLERLKEIVEEMRRLTEEMERVLERLEELLK
B24: traf2_out_6_169_2492 (protein)
chain: MEAEELRKEAERHLKTAKELVEIAKTIYKQAKENKKYERIDDYIEALETMRNAIKRHYDEAIKYYEKLGEEEKAEELKKEKEEVLKEIDEMIEELKKLKK
B25: traf2_out_11_131_666 (protein)
chain: MDPVAMAKTVAERVDERLELAKTLSPEEAHRLARQSLDTIEALAEYLKEHVDTMSEEDVEEAVKILEESVEKILEFDPSVKEEAEEVRKALEELKKAAKA
B26: traf2_out_11_169_817 (protein)
chain: EEAEKNRKINDFALELNDEAKKELLEHAEKLAKEAGLDVEEVKAIFEKNKNKSLSAVAAALIKYFKSKGKEEAAKAVLEKYEELKDKINKEATAKIKELE
B27: traf2_out_8_15_2552 (protein)
chain: SIEENAEKDIEKLKALSDGDKESLINTLLGTAKAELRYAKILKEEGRKEEALNTLEAARIYADAALKLAEEINSPKLEEIKKEVEEIHKEIEELKKEIEE
B28: traf2_out_11_155_769 (protein)
chain: SKKLEINQEFVDKVMEIRDEAIEKMRKLIEEDKSLTEEEKKRLLEILEKNKSLGLRTAALSLIREAKSLGKEELAEKIEEILKEAQKKMSEEAIKADKEI
B29: traf2_out_11_155_724 (protein)
chain: EKKRKAQNEIVDHSLEIGDELLKKVEEIIEKIEKKDPEVAAELRKVVEEHKKFSNRSAARAAIDLLKKRGYEEEAKELEKALEEAQKKMSKFIKEVEEKL

The full ranking holds about 1,800 sequences; the median of “median log2 fold change of GCK-ALFA target abundance (FLAG IP / Myc IP barcode read proportion)” is about 0.14, and the lowest 2% start at about -0.84. The list shows a part of the results.

The assay concerns the target T1, TRAF2, Q12933. Nature of the assay: median log2 fold change of GCK-ALFA target abundance (FLAG IP / Myc IP barcode read proportion) (log2 ratio); each designed protein is fused to an ALFA-tag nanobody in HEK293 cells to bring the named protein to FLAG-tagged glucokinase (GCK); Myc marks an untargeted standard; higher = target protein stabilised (more abundant). Conditions: target protein: 3xFLAG-MCP-GCK-ALFA reporter; HEK293 landing pad (RPLP). An outline of the steps:
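Sequencing of reverse-transcribed, amplified circular RNA barcodes from anti-FLAG and anti-Myc immunoprecipitates provided the readout for an ALFA-nanobody-fused binder library recombined into HEK293 landing-pad cells. Those cells were induced with 2 μg mL^−1 doxycycline, transfected with a plasmid expressing a FLAG-tagged target and a Myc-tagged standard, and lysed after 48 h. Target abundance is the per-binder median log2 ratio of FLAG to Myc barcode read proportions. Only barcodes at a proportion of ≥10^−7 in both replicates and binders with ≥3 barcodes per replicate were kept, with a 10^−6 pseudocount added before the two replicates were pooled.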
B1: the “median log2 fold change” value is 0.199.
Then B2, with 0.184; and B3, with 0.209; and B4, with 0.148.
Consider B5, for which the “median log2 fold change” value amounted to 0.204.
Take B6: the “median log2 fold change” value is -0.122.
With B7, the “median log2 fold change” value is 0.204.
Then B8, with -0.0332.
Then B9, with -0.433; and B10, with -0.126; and B11, with -0.651.
Then B12, with 0.127; and B13, with 0.458.
Regarding B14, the “median log2 fold change” value is 0.257.
Then B15, with 0.297; and B16, with -0.0301; and B17, with -0.00681.
B18: the “median log2 fold change” value amounted to 0.222.
Regarding B19, the “median log2 fold change” value worked out at 0.22.
Then B20, with 0.126; and B21, with 0.287.
Then B22, with -0.0551; and B23, with 0.155; and B24, with -0.229.
With B25, the “median log2 fold change” value was 0.0254.
In the case of B26, the “median log2 fold change” value worked out at 0.183.
Regarding B27, the “median log2 fold change” value amounted to 0.00326.
On to B28, for which the “median log2 fold change” value was found to be 0.15.
Then B29, with 0.232.

The values above are taken from the supplement of paper PMC12632987.
